20 molecules from paper PMC9911399, “Two distinct binding modes provide the RNA-binding protein RbFox with extraordinary sequence specificity” can be followed below.

Sequences and labels used below:
T1: RBFOX1 RRM RbFoxmut (Fox-RRM*) (Homo sapiens, UniProt Q9NWB1 109-208, R118D;E147R;N151S;E152T)
T1 sequence: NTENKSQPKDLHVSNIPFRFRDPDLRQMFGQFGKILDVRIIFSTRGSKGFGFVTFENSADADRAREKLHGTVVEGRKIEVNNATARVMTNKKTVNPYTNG

B1: UUGGUCG (DNA:RNA)
RNA: GGGAGACCGGAAUUCAGAUUGUCCUUGGUCGUUAAAUCCCGUCGUAGCCACCA
DNA 1: CAATCTGAATTCCGGTCTCCC
DNA 2: TGGTGGCTACGACGGGATT
B2: AAGCCUG (DNA:RNA)
RNA: B1 RNA with U25A, U26A, G28C, U29C, C30U
DNA 1: CAATCTGAATTCCGGTCTCCC
DNA 2: TGGTGGCTACGACGGGATT
B3: CUCGCAG (DNA:RNA)
RNA: B1 RNA with U25C, G27C, U29C, C30A
DNA 1: CAATCTGAATTCCGGTCTCCC
DNA 2: TGGTGGCTACGACGGGATT
B4: GACCCCU (DNA:RNA)
RNA: B1 RNA with U25G, U26A, G27C, G28C, U29C, G31U
DNA 1: CAATCTGAATTCCGGTCTCCC
DNA 2: TGGTGGCTACGACGGGATT
B5: CCAUUAU (DNA:RNA)
RNA: B1 RNA with U25C, U26C, G27A, G28U, C30A, G31U
DNA 1: CAATCTGAATTCCGGTCTCCC
DNA 2: TGGTGGCTACGACGGGATT
B6: UUUGUCU (DNA:RNA)
RNA: B1 RNA with G27U, G31U
DNA 1: CAATCTGAATTCCGGTCTCCC
DNA 2: TGGTGGCTACGACGGGATT
B7: AAUUGUA (DNA:RNA)
RNA: GGGAGACCGGAAUUCAGAUUGUCCAAUUGUAUUAAAUCCCGUCGUAGCCACCA
DNA 1: CAATCTGAATTCCGGTCTCCC
DNA 2: TGGTGGCTACGACGGGATT
B8: CGAGCAU (DNA:RNA)
RNA: B1 RNA with U25C, U26G, G27A, U29C, C30A, G31U
DNA 1: CAATCTGAATTCCGGTCTCCC
DNA 2: TGGTGGCTACGACGGGATT
B9: AGGCUGC (DNA:RNA)
RNA: B1 RNA with U25A, U26G, G28C, C30G, G31C
DNA 1: CAATCTGAATTCCGGTCTCCC
DNA 2: TGGTGGCTACGACGGGATT
B10: CAUUGUA (DNA:RNA)
RNA: B7 RNA with A25C
DNA 1: CAATCTGAATTCCGGTCTCCC
DNA 2: TGGTGGCTACGACGGGATT
B11: GCCCGCG (DNA:RNA)
RNA: B1 RNA with U25G, U26C, G27C, G28C, U29G
DNA 1: CAATCTGAATTCCGGTCTCCC
DNA 2: TGGTGGCTACGACGGGATT
B12: UCACGUC (DNA:RNA)
RNA: B7 RNA with A25U, A26C, U27A, U28C, A31C
DNA 1: CAATCTGAATTCCGGTCTCCC
DNA 2: TGGTGGCTACGACGGGATT
B13: GCAUUAA (DNA:RNA)
RNA: B7 RNA with A25G, A26C, U27A, G29U, U30A
DNA 1: CAATCTGAATTCCGGTCTCCC
DNA 2: TGGTGGCTACGACGGGATT
B14: ACGAGUU (DNA:RNA)
RNA: B7 RNA with A26C, U27G, U28A, A31U
DNA 1: CAATCTGAATTCCGGTCTCCC
DNA 2: TGGTGGCTACGACGGGATT
B15: ACGAUAC (DNA:RNA)
RNA: B1 RNA with U25A, U26C, G28A, C30A, G31C
DNA 1: CAATCTGAATTCCGGTCTCCC
DNA 2: TGGTGGCTACGACGGGATT
B16: CGUGUUU (DNA:RNA)
RNA: B7 RNA with A25C, A26G, U28G, G29U, A31U
DNA 1: CAATCTGAATTCCGGTCTCCC
DNA 2: TGGTGGCTACGACGGGATT
B17: CCCGCAC (DNA:RNA)
RNA: B1 RNA with U25C, U26C, G27C, U29C, C30A, G31C
DNA 1: CAATCTGAATTCCGGTCTCCC
DNA 2: TGGTGGCTACGACGGGATT
B18: AAUAGAC (DNA:RNA)
RNA: B7 RNA with U28A, U30A, A31C
DNA 1: CAATCTGAATTCCGGTCTCCC
DNA 2: TGGTGGCTACGACGGGATT
B19: CGAGCCA (DNA:RNA)
RNA: B1 RNA with U25C, U26G, G27A, U29C, G31A
DNA 1: CAATCTGAATTCCGGTCTCCC
DNA 2: TGGTGGCTACGACGGGATT
B20: UGCUCCU (DNA:RNA)
RNA: B1 RNA with U26G, G27C, G28U, U29C, G31U
DNA 1: CAATCTGAATTCCGGTCTCCC
DNA 2: TGGTGGCTACGACGGGATT

Changes are numbered by the printed parent chain; changes in the protein carry UniProt numbers. Some of the results follow.

The target of the test is T1, RBFOX1 RRM RbFoxmut (Fox-RRM*). The test is described as follows: EMSA; HiTS-Eq, 1 nM pool, 10 min; buffer printed only for the single-RNA assays: 10 mM Tris pH 7.5, 150 mM NaCl, 3.4 mM EDTA, 0.001% NP-40, 30 C. To be noted: tags: His6 N-terminal (pET28a); label: 5' 32P. The method, boiled down: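 A pool of RNA with 7 randomized nucleotides, 5′-radiolabelled and with DNA-annealed flanks, was equilibrated at 1 nM for 10 min in 50 µL with purified RbFox RRM, wild type or mutant, across increasing protein concentrations. Free RNA was separated by 8% native PAGE, excised, reverse-transcribed, barcoded by PCR and sequenced. Relative association constants were obtained from read-count changes of each RNA species versus the control reaction and normalised to the cognate motif.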
In general terms: Mobility shift assays separate free from complexed probe on a gel.
Consider B1, for which the binding signal was 0.268 KA relative to UGCAUGU.

On to B2, for which the binding signal is 0.0848 KA relative to UGCAUGU.

B3: the binding signal was 0.109 KA relative to UGCAUGU.

In the case of B4, the binding signal was 0.0538 KA relative to UGCAUGU.

With B5, the binding signal is 0.131 KA relative to UGCAUGU.

Take B6: the binding signal was 0.0828 KA relative to UGCAUGU.

Take B7: the binding signal was 0.188 KA relative to UGCAUGU.

B8: the binding signal was 0.105 KA relative to UGCAUGU.

Regarding B9, the binding signal is 0.105 KA relative to UGCAUGU.

With B10, the binding signal was 0.265 KA relative to UGCAUGU.

With B11, the binding signal was 0.103 KA relative to UGCAUGU.

Take B12: the binding signal was 0.0971 KA relative to UGCAUGU.

Turning to B13, the binding signal was 0.141 KA relative to UGCAUGU.

As to B14, the binding signal was 0.129 KA relative to UGCAUGU.

On to B15, for which the binding signal is 0.118 KA relative to UGCAUGU.

On to B16, for which the binding signal is 0.0886 KA relative to UGCAUGU.

As to B17, the binding signal is 0.0907 KA relative to UGCAUGU.

Take B18: the binding signal is 0.0757 KA relative to UGCAUGU.

With B19, the binding signal is 0.0942 KA relative to UGCAUGU.

In the case of B20, the binding signal was 0.0578 KA relative to UGCAUGU.
